# Reference: PubChem BioAssay AID504333 (National Center for Advancing Translational Sciences (NCATS), 2011)
# The campaign covered roughly 360,000 compounds. About 16,000 (4.4%) were called active. Inconclusive means that the source gave no clear call. Such entries were picked first, then a sample of the others. Calls follow the shape of the dose curve; as a rule, active = well fitted inhibition curve with a large enough effect; inconclusive = small, poorly fitted or top-dose-only effect; inactive = no such curve, though single readings can be large or run the other way. Potencies beside an inconclusive call are fits to weak or partial responses and may not hold up.
# Molecular target: Bromodomain adjacent to zinc finger domain protein 2B (Homo sapiens) (UniProt Q9UIF8)
# Sequence of UniProt Q9UIF8 (Q9UIF8 whole entry, looked up, the tested form may be a part): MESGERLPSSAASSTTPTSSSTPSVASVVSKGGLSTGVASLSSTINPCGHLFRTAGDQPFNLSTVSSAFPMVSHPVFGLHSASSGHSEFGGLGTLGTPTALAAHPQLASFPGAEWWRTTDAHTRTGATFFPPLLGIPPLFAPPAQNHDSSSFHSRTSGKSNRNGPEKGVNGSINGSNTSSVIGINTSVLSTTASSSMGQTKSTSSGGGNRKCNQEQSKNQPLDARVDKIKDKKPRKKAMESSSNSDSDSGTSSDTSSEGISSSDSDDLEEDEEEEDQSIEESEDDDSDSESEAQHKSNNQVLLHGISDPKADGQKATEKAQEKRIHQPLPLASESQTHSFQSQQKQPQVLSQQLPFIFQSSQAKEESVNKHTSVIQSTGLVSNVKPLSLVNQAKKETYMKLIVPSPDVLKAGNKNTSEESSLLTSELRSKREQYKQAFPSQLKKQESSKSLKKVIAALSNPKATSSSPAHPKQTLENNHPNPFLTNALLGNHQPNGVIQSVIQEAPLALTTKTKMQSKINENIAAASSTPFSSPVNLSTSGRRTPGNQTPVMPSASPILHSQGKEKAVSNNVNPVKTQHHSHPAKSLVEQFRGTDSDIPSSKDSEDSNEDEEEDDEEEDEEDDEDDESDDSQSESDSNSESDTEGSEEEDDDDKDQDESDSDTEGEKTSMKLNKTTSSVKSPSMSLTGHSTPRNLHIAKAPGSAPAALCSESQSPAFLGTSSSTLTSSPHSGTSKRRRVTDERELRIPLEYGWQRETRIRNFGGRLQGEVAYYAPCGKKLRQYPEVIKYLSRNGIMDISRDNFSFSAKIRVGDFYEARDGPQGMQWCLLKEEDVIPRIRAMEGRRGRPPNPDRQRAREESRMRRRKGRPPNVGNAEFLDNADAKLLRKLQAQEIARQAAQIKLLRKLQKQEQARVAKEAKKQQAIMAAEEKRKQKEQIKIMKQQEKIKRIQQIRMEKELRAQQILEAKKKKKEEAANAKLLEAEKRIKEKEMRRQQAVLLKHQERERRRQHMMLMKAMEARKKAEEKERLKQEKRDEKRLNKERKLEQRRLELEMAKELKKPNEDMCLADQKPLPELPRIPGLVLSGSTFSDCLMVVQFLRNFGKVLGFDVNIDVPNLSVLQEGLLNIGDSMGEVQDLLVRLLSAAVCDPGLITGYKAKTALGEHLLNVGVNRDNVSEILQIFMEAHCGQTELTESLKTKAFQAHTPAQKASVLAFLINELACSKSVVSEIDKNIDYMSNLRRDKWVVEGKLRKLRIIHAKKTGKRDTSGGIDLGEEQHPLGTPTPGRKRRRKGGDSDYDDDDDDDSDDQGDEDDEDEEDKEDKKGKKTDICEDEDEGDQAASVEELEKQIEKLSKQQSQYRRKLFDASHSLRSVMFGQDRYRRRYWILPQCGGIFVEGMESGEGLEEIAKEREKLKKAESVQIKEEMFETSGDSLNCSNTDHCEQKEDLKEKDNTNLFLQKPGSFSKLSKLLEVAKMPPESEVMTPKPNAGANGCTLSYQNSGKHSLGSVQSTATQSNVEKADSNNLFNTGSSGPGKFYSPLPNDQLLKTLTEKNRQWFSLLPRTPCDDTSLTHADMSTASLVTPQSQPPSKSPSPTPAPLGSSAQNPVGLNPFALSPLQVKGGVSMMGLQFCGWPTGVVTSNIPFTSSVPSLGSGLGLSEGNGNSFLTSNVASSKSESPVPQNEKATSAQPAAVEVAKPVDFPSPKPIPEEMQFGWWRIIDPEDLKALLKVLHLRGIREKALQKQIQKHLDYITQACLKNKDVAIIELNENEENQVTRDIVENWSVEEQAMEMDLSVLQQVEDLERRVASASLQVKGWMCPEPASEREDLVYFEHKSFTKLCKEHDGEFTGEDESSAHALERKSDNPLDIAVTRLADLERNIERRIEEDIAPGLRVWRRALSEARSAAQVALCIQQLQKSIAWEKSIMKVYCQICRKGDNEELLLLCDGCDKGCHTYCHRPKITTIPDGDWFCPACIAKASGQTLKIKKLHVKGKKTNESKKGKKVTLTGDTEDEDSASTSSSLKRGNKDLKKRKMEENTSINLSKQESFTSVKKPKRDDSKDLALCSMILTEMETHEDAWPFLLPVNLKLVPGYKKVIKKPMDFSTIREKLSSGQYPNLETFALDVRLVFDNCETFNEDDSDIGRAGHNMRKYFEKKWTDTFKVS
# Experiment: qHTS Assay for Inhibitors of BAZ2B; also: nearly all actives have a fitted effect of over 60% in size
# Conditions: AlphaScreen BAZ2B-H3K14Ac peptide displacement; series mostly up to 114 µM
# How it was run: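 AlphaScreen displacement: compounds (up to 110uM) incubated 30 min at room temperature with a preformed 50 nM BAZ2B/50 nM biotinylated H3K14Ac peptide complex in PBS pH 7.4 with Tween-20. Donor and acceptor beads at 10 ug/mL final added, 20 min light-protected before reading.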
# Potency is read from the fitted curve at half-maximal effect; tags tell the direction and shape of the fitted curve.
row,Compound,Potency
1,CCOC(=O)CCCNC(=O)COC(=O)c1cccc(C)c1O,inactive
2,CCc1nnc(NC(=O)CSc2nnc(-c3ccoc3C)n2-c2cccc(C)c2)s1,"inconclusive: 70.8 µM [inhibitor, single point]"
3,Cc1ccc(C2CC(=O)Nc3cc4c(cc32)OCCO4)cc1Br (centres undefined),"inconclusive: 28.2 µM [inhibitor, single point]"
4,COc1ccc(CNc2oc(COc3ccccc3Cl)nc2C#N)cc1,"inconclusive: 20 µM [inhibitor, full curve]"
5,CCC(C(=O)OC)n1c(-c2ccccc2)nc2ccccc2c1=O (centres undefined),inactive
6,O=[N+]([O-])c1ccccc1S(=O)(=O)N1CCN(c2ccc(F)cc2)CC1,"inconclusive: 79.4 µM [inhibitor, partial curve]"
7,COc1cccc(C(=O)C2CCCN(Cc3cccn3-c3cccnc3)C2)c1 (centres undefined),"inconclusive: 79.4 µM [inhibitor, single point]"
8,Cc1ccccc1NC(=O)CN1C(=O)COc2ccc(Cl)cc21,"inconclusive: 28.2 µM [inhibitor, single point]"
9,COc1cc(CNCCN2CCOCC2)ccc1OCc1ccc(Cl)cc1Cl,"inconclusive: 89.1 µM [inhibitor, single point]"
10,Cc1ccc(NC(=O)C(C)OC(=O)CCN=C2NS(=O)(=O)c3ccccc32)cc1 (centres undefined),inactive
11,Nc1ccc2nc(SCC(=O)N3CCN(c4ccccc4)CC3)sc2c1,"inconclusive: 79.4 µM [inhibitor, partial curve]"
12,Cc1cccc(Nc2nnc(SCC(=O)Nc3ccccc3[N+](=O)[O-])s2)c1C,"inconclusive: 39.8 µM [inhibitor, full curve, poor fit]"
13,CC1CC(C)CN(CC(=O)N2CCOCC2)C1 (centres undefined),active: 50.1 µM
14,CCCCn1c(CNC(=O)C23CC4CC(CC(C4)C2)C3)nnc1SCC(=O)Nc1ccc(C)cc1,"inconclusive: 79.4 µM [inhibitor, single point]"
15,O=C(CCNc1ccc(Br)cc1)c1cccc([N+](=O)[O-])c1,"inconclusive: 28.2 µM [inhibitor, full curve]"
16,COc1ccc(C(C)=O)cc1CC(=O)NCCCn1ccnc1,"inconclusive: 89.1 µM [inhibitor, single point]"
17,COCCNC(=S)N1CCc2cc(OC)c(OC)cc2C1COc1ccc(C(C)C)cc1 (centres undefined),"inconclusive: 31.6 µM [inhibitor, full curve]"
18,COC(=O)/C(C#N)=C/c1c(N2CCCCCC2)nc2ccccn2c1=O,"inconclusive: 79.4 µM [inhibitor, single point]"
19,CCOCCn1c(CN2CCN(C)CC2)nc2c1c(=O)n(C)c(=O)n2C,inactive
